The campaign covered roughly 48,000 compounds. About 450 (0.94%) were called active. Roughly 19% stayed inconclusive and do not appear here. The call rests on the fitted dose curve; in most records, active means well fitted inhibition curve with a large enough effect; inconclusive means small, poorly fitted or top-dose-only effect; inactive means no such curve, though single readings can be large or run the other way. Some of the results follow.
Test: Primary qHTS for Identification of Small Molecule Inhibitors of Huntingtin Promoter Activity; further: nearly all actives have a fitted effect of over 50% in size
Details: HEK293 HTT promoter firefly luciferase reporter (activity 0% = vehicle and -100% = no light), 24 h; series mostly up to 57.5 µM; activity change, negative = inhibition: at the top concentration
In short: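 HEK293 cells carrying firefly luciferase reporters were seeded at 2,500 per well in Opti-MEM and cultured for 24 h. They were then treated with compounds at up to 57.5 uM final for 24 h at 37 degrees C before Dual-Glo luminescence readout.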

Activity change, negative = inhibition, inactive:
COc1ccc(CNC(=O)c2ccc(-c3nc(CSc4ccccc4)c(C)o3)cc2)c(OC)c1 -14.1%
CCOc1ccc2oc(=O)cc(CN3CCN(c4ccccc4)CC3)c2c1 -22%
N#Cc1c[nH]n2c(NC3CCCCC3)c(-c3cccc(Cl)c3)nc12 11.6%
COc1ccc(CCN2C(=O)N(c3ccccc3)C(=O)C2CC(=O)Nc2ccccc2)cc1 (stereo unspecified) -26.1%
Cc1ccc(-c2nc(C)c(CCNC(=O)C(=O)Nc3ccc4c(c3)OCO4)s2)cc1 5.24%
CCOC(=O)C1CCN(CCC(=O)Nc2ccc(OC)cc2)CC1 -16.9%
Cc1nc(N2CCOCC2)c2c(C(=O)N3CCN(c4cccc(C)c4C)CC3)c(C)oc2n1 -26.4%
COc1cc(C(=O)N2CC(=O)Nc3ccc(C)cc3C2c2ccc(F)cc2)cc(OC)c1OC (stereo unspecified) -10%
Cc1cc(C)c(NC(=O)CCC(=O)N2Cc3ccccc3Oc3ncccc32)c(C)c1 -14.6%
COC(=O)c1ccccc1NC(=O)Cn1c(=O)n(CCCC(=O)NCCc2ccc(OC)c(OC)c2)c(=O)c2ccccc21 -5.35%
CCCOc1ccc(C2c3c(oc4ccccc4c3=O)C(=O)N2c2nc(C)c(C(=O)OCC)s2)cc1 (stereo unspecified) -11.7% [at 11.5 µM]
COc1ccc(S(=O)(=O)NCc2ccc(C(=O)NCc3ccccc3)cc2)cc1 -14.7%
CC(C)c1ccc(NC(=O)C2(C)Cc3ccccc3C(=O)O2)cc1 (stereo unspecified) 25.4%
CN1c2cc(O)c(N=NC(N)=O)cc2CC1S(=O)(=O)O (stereo unspecified) 6.04%
Cc1ccc2c(c1)-c1c(cnn1CC(=O)N1CCN(c3cc(Cl)ccc3C)CC1)CO2 -15.5%
CC(C)C(NS(=O)(=O)c1cccc2cccnc12)C(=O)Nc1ccc(OC(F)(F)F)cc1 (stereo unspecified) -21.4%
O=C(c1ccccc1)c1ccc2nc(Nc3cc(Cl)ccc3O)c3nncn3c2c1 -11.2%
COc1cccc(CNC(=O)c2cc(-c3cccc(OC)c3)n[nH]2)c1 48%
CCOc1ccc(NS(=O)(=O)c2ccc(N)cc2)nn1 11%
Cc1ccc(N2CCN(C(=O)CCc3c(C)nc4c(c3C)c(=O)n(C)c(=O)n4C)CC2)c(C)c1 -13.9%
O=C(CCn1cnc2ccccc2c1=O)NCc1ccccc1 1.4%
CCCSCCCNC(=O)CN1C(=O)COc2ccc(S(=O)(=O)N3CCC(C)CC3)cc21 -19.3%
CN1C(=O)Cc2cc(S(=O)(=O)CCC(=O)Nc3ccccc3)ccc21 -15.7%
CCN(CC)CCCNC(=O)Cn1nc(N2CCN(c3ccccc3OC)CC2)ccc1=O -4.66%
COc1cc(OC)c(N(C)C(=O)c2nn(C)c3c2CSc2ccccc2-3)cc1Cl -6.73%
CCOc1ccccc1NC(=O)c1sc(-n2nc(C)c(CCC(C)C)c2C)nc1C -15.8%
Cc1ccc(Cl)cc1N1CCN(C(=O)c2ccc3c(c2)N(Cc2ccccc2F)C(=O)c2ccccc2S3(=O)=O)CC1 -10.7%
CCCCOc1ccc(S(=O)(=O)N2CCN(c3ccccc3OCC)CC2)cc1 1.1%
COc1ccc(Cl)cc1NC(=O)CN(C)S(=O)(=O)c1ccc(Br)s1 -23%
CCC1CCCCN1CCCNC(=O)CN1C(=O)CSc2ccc(S(=O)(=O)N3CCC(C)CC3)cc21 (stereo unspecified) -15.8%
Cc1cc(C)c2oc(-c3cccc(NC(=O)c4ccco4)c3)nc2c1 -0.917%
COCCCNC(=O)CCC(=O)N1Cc2ccccc2Oc2ncccc21 17.3%
Cc1cc2c(c3oc(=O)c4ccccc4c13)CN(Cc1ccc(F)cc1)CO2 -3.25%
O=C(Nc1cccc(Cl)c1)Nc1ccccc1OCc1cc(=O)n2ccccc2n1 8.33%
C#CCN[C@@H]1CCc2ccccc21
C1COC(NC(C2CC2)C2CC2)=N1
Cc1ccc(CNC(=O)Cn2ccn(-c3ccc(C)c(C)c3)c(=O)c2=O)cc1 -2.12%
CN(C)c1ccc(CNC(=O)CN(C)S(=O)(=O)c2ccc3c(c2)c(=O)n(C)c(=O)n3C)cc1 -17.1%
Cc1ccc(-n2nc3c(N4CCCC(C(=O)NCCc5ccccc5)C4)nnc(C)c3c2C)cc1 (stereo unspecified) -4.55%
COc1cccc(C(=O)Nc2c(C(=O)NC(C)(C)C)oc3ccccc23)c1 -4.45%
CCc1cccc(NC(=O)Cn2c(=O)n(CCc3ccc(OC)c(OC)c3)c(=O)c3ccccc32)c1 -12.2%
O=C(Cn1ncc2c(=O)oc3ccccc3c21)NCc1ccccc1Cl -18.9%
CCOC(=O)Cn1cccc1-c1nc(-c2ccc(OC)cc2)c(-c2ccc(OC)cc2)s1 -6.6%
CCOC(=O)c1c(C)[nH]c(C)c1S(=O)(=O)N1CCCC(C(=O)Nc2ccc(OC)c(Cl)c2)C1 (stereo unspecified) -15.1%
COc1cc(OC2CCN(C)CC2)ccc1Nc1ncc2c(n1)n(C1CCCC1)c(=O)n2C -26.7%
O=C(Cn1ncc2c3ccccc3n(Cc3ccccc3F)c2c1=O)NCCc1ccc(Cl)cc1 -12.2%
COc1cccc(CNC(=O)CSc2c3c(nc4ccc(Cl)cc24)CCCC3)c1OC -12.6%
CC1=C(C(=O)Nc2ccc(C)cc2C)C(c2ccc(Cl)cc2)n2nc(C(=O)OC(C)C)nc2N1 (stereo unspecified) -6.94%
O=C(Cn1cnc(S(=O)(=O)N2CCCC2)c1)Nc1ccc(OC(F)(F)F)cc1 -18.1%
CCc1ccc(NC(=O)c2cc3sc(Cl)cc3n2C)cc1 41.9%
Cc1ccccc1Nc1nnc(-c2ccc(C)c(S(=O)(=O)N3CCOCC3)c2)c2ccccc12 -18.4%
COc1ccc(CN2COc3ccc4c(-c5ccccc5)cc(=O)oc4c3C2)cc1 -11.1%
Cc1cccc(N2CCN(C(=O)C3CCN(S(=O)(=O)c4cccs4)CC3)CC2)c1C -25.9%
COc1ccc(OC)c(NC(=O)Cn2cnc3c(oc4ccccc43)c2=O)c1 15%
CCOC(=O)c1cc(-c2ccccc2)n(CC(=O)Nc2ccc(OC)cc2OC)c1C -15.7%
CCOc1ccc(NC(=O)C2CCN(S(=O)(=O)c3cc(-c4noc(C)n4)ccc3C)CC2)cc1 -10.5%
CSc1cccc(-c2nnc(NC(=O)c3ccc4c(c3)OCCO4)o2)c1 -18.6%
CC(C)CC(=O)NCc1nc2cccnc2n1Cc1ccccc1 -2.22%
CCOC(=O)c1nc(Nc2ccc(C(=O)OCC(C)C)cc2)c2ccccc2n1 -15.5%
Cc1ccc2oc(C(=O)N(Cc3cccc(F)c3)C3CCS(=O)(=O)C3)c(C)c2c1 (stereo unspecified) -15.9%
COc1ccc(N2CCN(C(=O)c3cc(S(=O)(=O)N4CCCCCC4)cn3C)CC2)cc1 -15.5%
COc1ccc(-c2cc(=S)ss2)cc1 6.24%
O=C(NCc1ccccc1Cl)C1CCC(CNS(=O)(=O)c2ccc(Cl)cc2)CC1 (stereo unspecified) -4.37%
COc1cccc(NC(=O)N2CCC(n3c(C)nc4cccnc43)CC2)c1 -14.8%
COc1cccc(Cn2c(=O)n(-c3ccc(C)c(F)c3)c(=O)c3sc4ccccc4c32)c1 -13.7%
Cc1ccc(-c2cc(C(F)(F)F)n3nc(-c4ccc(Cl)cc4)cc3n2)cc1 -16.2% [at 11.5 µM]
COc1ccc(CNC(=O)C2CCN(Cc3nc(-c4ccc(OC)c(OC)c4)oc3C)CC2)cc1 2.33%
COc1cccc(OC)c1C(=O)Nc1nnc(C)s1 -13.8%
O=C(COC(=O)C(Cc1c[nH]c2ccccc12)NC(=O)c1ccc(Br)cc1)c1ccc(Cl)cc1 (stereo unspecified) -22.9%
Cc1cc(C(C)(C)C)c(O)c(C(C)(C)C)c1 3.11%
COc1ccccc1N1CCN(C(=O)c2sc3nc4n(c(=O)c3c2C)CCC4)CC1 0.937%
CCOc1ccc(C(=O)c2cn(Cc3ccccc3OC)c3cc4c(cc3c2=O)OCCO4)cc1 6.98%
CCCCN(CC)CCNC(=O)c1cn(CCOC)c(=O)c2c1c1ccccc1n2C -6.25%
O=C(NC1CC(=O)N(c2cccc(F)c2)C1)c1ccc(S(=O)(=O)N2CCOCC2)cc1 (stereo unspecified) -0.623%
COc1ccccc1CN1COc2ccc3c(C)cc(=O)oc3c2C1 -20.7%
CCOC(=O)c1ccc(NC(=O)CSc2ccc(-c3sc(C)nc3C)nn2)cc1 -21.5%
COc1ccc(Cn2ccc3nc(C)c(C(=O)N4CCN(c5ccccc5)CC4)cc3c2=O)cc1 -0.678%
COc1ccc(C(=O)c2oc3ccccc3c2NC(=O)c2ccc(F)cc2)cc1 1.68%
O=C(c1cn(CCOc2ccccc2F)c2ccccc12)C1CCCCC1 -16.5%
CCOC(=O)c1ccc(NC(=O)c2cn(-c3ccccc3)nc2-c2ccc(Br)cc2)cc1 -1.69%
CN/C(=C\[N+](=O)[O-])NCCSCc1ccc(CN(C)C)o1 -4.19%
COc1ccc(NC(=O)CSc2oc(-c3cccs3)nc2S(=O)(=O)c2ccc(Br)cc2)c(OC)c1 -8.92%
Cc1cccc(Cn2cc(C(=O)c3ccccc3)c(=O)c3cc4c(cc32)OCO4)c1 -17.1%
Cc1ccc(Nc2sc(C(=O)c3ccccc3)c(N)c2C(=O)NC(C)C)cc1 -15.8%
CCc1nonc1NC(=O)c1oc2cc(C)c(Cl)cc2c1C -21.5%
Cc1ccc(CCNC(=O)CN2C(=O)COc3ccc(S(=O)(=O)N4CCCCC4)cc32)cc1 -18.2%
Cc1ccc(Nc2nnc(-c3ccc(C)c(S(=O)(=O)N4CCCCC4)c3)c3ccccc23)cc1 15.7%
CCOc1ccc2c(c1)[C@@H]1C=CC[C@@H]1[C@H](c1ccccc1Cl)N2 -18.3%
COc1ccc(OC)c(NCc2cccn2-c2nnc(N3CCC(C)CC3)s2)c1 -17.5%
CC(C)(C)OC(=O)N1CCC(c2c(C(=O)Nc3ccc4c(c3)OCCO4)cnn2-c2ccc(F)cc2)CC1 -13.5%
Cc1ccc(CNC(C)c2ccccc2)s1 (stereo unspecified) 4.65%
Cc1cccc(-c2nc3c(cnn3-c3ccccc3)c(=O)n2-c2cccc(Cl)c2)c1 -36.2%
CCN(CC)S(=O)(=O)c1ccc2c(c1)c(=O)c(C(=O)N(C)Cc1ccccc1)cn2C 5.77%
Cc1ccc(C)c(NC(=O)CCCN2C(=O)COc3ccc(C)cc32)c1 -29.3%
Cc1cc(C)cc(NC(=O)CSc2nnc(COc3ccccc3Cl)o2)c1 -8.44%
CC(C)(C)OC(=O)N1CCC(c2c(C(=O)Nc3cccc(C(F)(F)F)c3)cnn2-c2ccc(F)cc2F)CC1 -22.7%
